Assay results: PubChem BioAssay AID651711 (Broad Institute, 2012)
Several values for one entry are separate records, joined by “and”; a condition that tells them apart may be missing. Equal values may be shown once. Screen size: about 350,000 compounds; about 180 (0.051%) were called active. This list was built around the results that the source calls inconclusive (neither active nor inactive); the mix of calls is not that of the screen.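 How the source made its calls: active means mean replicate inhibition above about 25%, with every replicate also reaching it (limit read from the data, passing the limit was not always enough); inconclusive means only one of those two criteria met; inactive means neither criterion met.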 A structure can be active in one record and inactive in another.

Biological target: Protein disulfide-isomerase A6 (Homo sapiens) (UniProt Q15084)
Assay: ERp5 (PDIA6) reductase activity blockers – biochemical, turbidity, absorbance 650 nm, single point, primary screen (AID 651711)
Details: ERp5 insulin aggregation, 90 min, at 9.99 µM, active compounds read high

UniProt Q15084, sequence (Q15084 whole entry, looked up): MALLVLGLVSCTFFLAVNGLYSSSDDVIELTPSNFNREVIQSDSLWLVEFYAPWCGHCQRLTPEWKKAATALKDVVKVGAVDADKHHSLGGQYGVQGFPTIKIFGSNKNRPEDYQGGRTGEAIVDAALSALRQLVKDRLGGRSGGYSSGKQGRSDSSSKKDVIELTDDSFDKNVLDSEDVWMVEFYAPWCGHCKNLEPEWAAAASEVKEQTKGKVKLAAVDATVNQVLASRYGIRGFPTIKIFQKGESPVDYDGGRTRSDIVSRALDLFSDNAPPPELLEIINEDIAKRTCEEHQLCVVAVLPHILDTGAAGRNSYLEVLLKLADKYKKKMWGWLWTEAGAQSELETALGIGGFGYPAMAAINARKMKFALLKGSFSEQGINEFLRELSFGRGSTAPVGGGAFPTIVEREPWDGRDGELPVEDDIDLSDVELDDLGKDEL

| SMILES | inhibition |
| --- | --- |
| O=C1NC(=O)C(CCc2ccncc2)(CCc2ccccn2)C(=O)N1c1ccc(Br)cc1 (configuration not stated) | inactive: 5.34% |
| COC(=O)C1=C(N)Oc2cc(C)oc(=O)c2C12C(=O)Nc1ccccc12 (configuration not stated) | inactive: -0.304% |
| O=C(O)c1cc2ccccc2oc1=O | inconclusive: 34.9% |
| COC(=O)C1=C(c2cccc(C#N)c2)C[C@@H]2CC[C@H]1N2C(=O)NCc1ccco1 | inconclusive: 51.4% |
| O=S1(=O)CCN(CCc2c[nH]c3ccccc23)CC1 | inconclusive: 41.2% |
| CC(C)c1ccc(-n2c(O)c(/C=N/NC(=O)c3ccncc3)c(=O)[nH]c2=O)cc1 | inactive: -9.52% |
| CCP(=S)(CC)c1ccc(N(C)C)cc1 | inconclusive: 41.1% |
| COc1ccc(CCNCc2ccc(C)s2)cc1OC | inconclusive: 39.3% |
| COc1ccc(OC)c(N2Cc3ccccc3C2=N)c1 | inconclusive: 38.8% |
| C/C=C/c1ccc(C2[C@@H]3CN(C(C)=O)C[C@H]2N3)cc1 (some centres not stated) | inconclusive: 33.5% and inconclusive: 44.7% |
| Cc1cc(OCC(=O)NCc2ccc(S(N)(=O)=O)cc2)c2c3c(c(=O)oc2c1)CCC3 | active: 28% |
| O=Cc1cn(Cc2c(F)cccc2Cl)c2ccccc12 | inconclusive: 41.8% |
| O=C(COC(=O)c1cccc(O)c1)Nc1ccc(Cl)cc1C(=O)c1ccccc1 | inactive: 1.91% |
| CC(C)(C)P(=O)(c1ccncc1)N1CCCC1 (configuration not stated) | inconclusive: 47.6% |
| COC(=O)C1=C(c2c(C)noc2C)C[C@@H]2CC[C@H]1N2C(=O)NCC1CC1 | inconclusive: 29.7% |
| Cc1cc(=O)oc2cc(OCC(=O)N3C[C@H]4C[C@@H](C3)c3cccc(=O)n3C4)ccc12 | inconclusive: 25.7% |
| CCN1CCN(c2ccc(N)c(C)c2)CC1 | inconclusive: 47.8% |
| COc1ccccc1OCC(=O)N1CCN(Cc2ccc3c(c2)OCO3)CC1 | inconclusive: 39.4% |
| COc1ccccc1C(=O)C1CCCN(Cc2cnc(C)s2)C1 (configuration not stated) | inconclusive: 32.7% |
| COC(=O)C1=C(c2ccc(F)cc2OCc2ccccc2)C[C@@H]2CC[C@H]1N2C(=O)N1CCC(O)(c2ccc(Cl)cc2)CC1 | inactive: -3.46% |
| CCOC(=O)C1CCN(/C=C2/C(=O)NC(=O)N(c3ccc(OCC)cc3)C2=O)CC1 | inconclusive: 40.2% |
| Cc1ccc2c(c1N)C(=O)c1ccccc1C2=O | inactive: -5.47% |
| CCC(=O)N1[C@@H]2Cn3c(ccc(-c4cccc(F)c4)c3=O)[C@H]1[C@@H](C(=O)OC)[C@@H]2CO | inactive: 3.81% |
| CCCCN1C(=O)/C(=C/C=C/c2ccco2)C(=O)NC1=S | inconclusive: 39.6% |
| Clc1ccc(C(c2ccccc2)c2ncc[nH]2)cc1 (configuration not stated) | inconclusive: 39.8% |
| O=C(c1sc2ccccc2c1Cl)N1CCC2(CC1)OCCO2 | inconclusive: 55.9% |

| SMILES | inhibition |
| --- | --- |
| CCn1nc(/C=C/c2ccccc2)nc2c(=O)n(C)c(=O)nc1-2 | active: 38.1% |
| COC(=O)[C@H]1[C@H](CO)[C@H]2Cn3c(ccc(C4=CCCC4)c3=O)[C@@H]1N2CC1CCCCC1 | inactive: -7.11% |
| O=C(c1ccc(Cl)cc1)C1CCCN(Cc2cccc3cnccc23)C1 (configuration not stated) | inconclusive: 31.8% |
| CCOc1cc2c(cc1OCC)-n1cccc1C(c1cc(OC)ccc1F)NC2 (configuration not stated) | inactive: 4.79% |
| C[N+]1(C)C2CCC1CC(OC(=O)c1ccccc1)C2 (configuration not stated) | inconclusive: 39.6% |
| O=C1NC(=S)NC(=O)C1C1CCCCC1 | inconclusive: 51% |
| Cc1ccc(S(=O)(=O)N2CCCC2c2cccnc2)cc1 (configuration not stated) | inconclusive: 48.7% |
| COc1cc(/C=C2/C(=O)NC(=O)N(c3ccccc3)C2=O)ccc1O | inconclusive: 34.8% |
| CC(=O)Nc1ccc(C(c2c(O)c3ccccc3oc2=O)c2c(C)n(C)n(-c3ccccc3)c2=O)cc1 (configuration not stated) | inconclusive: 39.3% |
| O=c1[nH]c(=O)n(-c2ccccc2F)c(O)c1C=NCCC1=CCCCC1 | inconclusive: 40.2% |
| COCCN1C(=O)/C(=C/c2c(OC)cc(OC)cc2OC)C(=O)N(c2ccccc2)C1=O | inconclusive: 44% |
| Cc1cc(NC(=O)CCl)no1 | inconclusive: 42.9% |
| C=C1C(=O)O[C@@H]2C[C@@H](C)[C@@H]3C4OC4C(=O)[C@@]3(C)[C@@H](O)[C@H]12 (some centres not stated) | inactive: -3.15% |
| COc1ccc(N2C(=O)/C(=C/c3cccs3)C(=O)NC2=S)cc1 | inconclusive: 32.1% |
| COc1cc(CNCCc2ccc3c(c2)OCO3)ccc1O | inconclusive: 52.6% |
| CN1CCN(C(=O)COc2ccc(S(=O)(=O)N(C)Cc3ccccc3)cc2)CC1 | inconclusive: 28.4% |
| C[C@]12CC[C@H](O)CC1=CC(=O)C1C2CC[C@]2(C)C(=O)[C@H](O)CC12 (some centres not stated) | inactive: -0.304% |
| N#Cc1cccc(-c2ccc([C@H]3[C@H](CO)N4CCCCN(C(=O)Cc5cccnc5)C[C@@H]34)cc2)c1 | inactive: -0.245% |
| C[C@H](CO)N1C[C@H](C)[C@@H](CN(C)C(=O)Oc2ccc3ccccc3c2)OCc2cn(nn2)CCCC1=O | active: 54.5% |
| CCOc1ccc(C(=O)OC2CC3CCC(C2)N3C)cc1 (configuration not stated) | inconclusive: 31.4% |
| COc1ccc(C#Cc2ccc([C@H]3[C@H](CO)N4CCCCN(C(=O)Cc5cccnc5)C[C@@H]34)cc2)cc1 | active: 27% |
| O=[N+]([O-])c1ccc(N2CC2)c([N+](=O)[O-])c1 | inactive: -1.61% |
| O=c1c2ccccc2nc(CNCC2CCCO2)n1-c1ccc(F)cc1 (configuration not stated) | inconclusive: 33.2% |
| Cc1ccc(OC(=O)N(C)C[C@@H]2OCc3ccccc3-c3c(n(C)c4ccccc34)C(=O)N([C@@H](C)CO)C[C@H]2C)cc1 | inactive: -1.78% |
| Cc1ccccc1-c1ccc([C@@H]2[C@H](CO)N3CCCCN(C(=O)Cc4ccccn4)C[C@@H]23)cc1 | inactive: 18.3% |
| Cc1cc(C=O)c(C)n1C(C)C | inconclusive: 33.4% |
